According to PMC2661964, “Mammalian Kinesin-3 Motors Are Dimeric In Vivo and Move by Processive Motility upon Release of Autoinhibition” (PLoS Biology, 2009):
Results are given in words; binding and its absence hold for the method and conditions named. For part of these data: Binding seen in cells or lysates may run through a third protein. Some binding calls cover weakened binding; strength is not graded here. For part of these data: Sequences can lack the tags named with a protein. Blank lines part the entries; values can stand above or below the binder they belong to.

Experiments:
KIF1A(1–726)-Myc (rat) = target: T1, KIF1A(1–726)-Myc (rat) (UniProt F1M4A4); experiment: co-IP; lysates of COS cells coexpressing Myc- and mCit-tagged KIF1A constructs of the same length; immunoprecipitated with anti-Myc or control IgG, SDS-PAGE, immunoblot
T1 sequence: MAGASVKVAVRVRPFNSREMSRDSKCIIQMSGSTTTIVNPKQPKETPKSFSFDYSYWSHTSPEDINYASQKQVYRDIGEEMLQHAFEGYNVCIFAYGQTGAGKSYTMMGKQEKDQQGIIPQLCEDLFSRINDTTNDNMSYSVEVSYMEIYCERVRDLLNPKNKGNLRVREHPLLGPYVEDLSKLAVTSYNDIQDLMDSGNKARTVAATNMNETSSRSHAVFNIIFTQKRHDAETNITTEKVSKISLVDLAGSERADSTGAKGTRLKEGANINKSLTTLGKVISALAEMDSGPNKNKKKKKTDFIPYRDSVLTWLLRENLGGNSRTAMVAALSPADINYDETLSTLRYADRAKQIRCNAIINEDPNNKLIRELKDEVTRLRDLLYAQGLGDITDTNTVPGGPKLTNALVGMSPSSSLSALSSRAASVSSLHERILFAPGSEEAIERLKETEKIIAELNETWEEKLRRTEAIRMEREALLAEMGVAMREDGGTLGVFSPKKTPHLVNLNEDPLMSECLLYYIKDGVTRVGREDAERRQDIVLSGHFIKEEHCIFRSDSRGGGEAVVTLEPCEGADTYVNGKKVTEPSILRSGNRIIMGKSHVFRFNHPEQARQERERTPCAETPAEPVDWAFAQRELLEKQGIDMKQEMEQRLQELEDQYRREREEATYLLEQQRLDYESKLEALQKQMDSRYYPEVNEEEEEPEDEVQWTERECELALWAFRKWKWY

KIF1A(1–381)-mCit (rat) = KIF1A(1–381)-mCit (rat) (UniProt F1M4A4); experiment: cross-linking; lysates of transfected COS cells in borate buffer (50 mM NaBorate, 100 mM potassium acetate, 2 mM MgCl2, 1 mM EGTA, 1% Triton X-100, pH 8.57), 20 mM DMP for 30 min or untreated; SDS-PAGE, immunoblot
[1] = target: T2, KIF1A(1–393)-3xmCit (rat) (UniProt F1M4A4); experiment: two-colour single-molecule TIRF motility assay (co-migration); lysates of COS cells coexpressing KIF1A(1–393)-3xmCit and KIF1A(1–393)-3xmCherry on microtubules; mCit and mCherry tracked at once
T2 sequence: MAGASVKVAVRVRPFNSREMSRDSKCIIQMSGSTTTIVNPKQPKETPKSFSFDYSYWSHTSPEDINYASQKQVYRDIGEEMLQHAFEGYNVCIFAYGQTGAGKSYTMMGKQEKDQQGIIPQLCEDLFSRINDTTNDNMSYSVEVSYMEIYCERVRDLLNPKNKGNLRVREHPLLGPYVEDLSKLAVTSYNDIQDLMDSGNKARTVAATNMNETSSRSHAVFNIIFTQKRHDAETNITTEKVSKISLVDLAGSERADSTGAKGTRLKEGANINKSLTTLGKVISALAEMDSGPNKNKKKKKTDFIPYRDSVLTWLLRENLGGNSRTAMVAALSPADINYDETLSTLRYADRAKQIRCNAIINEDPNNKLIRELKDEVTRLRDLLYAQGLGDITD

KIF1A(1–393)-Myc (rat) = target: T3, KIF1A(1–393)-Myc (rat) (UniProt F1M4A4); experiment: co-IP; lysates of COS cells coexpressing Myc- and mCit-tagged KIF1A constructs of the same length; immunoprecipitated with anti-Myc or control IgG, SDS-PAGE, immunoblot
T3 sequence: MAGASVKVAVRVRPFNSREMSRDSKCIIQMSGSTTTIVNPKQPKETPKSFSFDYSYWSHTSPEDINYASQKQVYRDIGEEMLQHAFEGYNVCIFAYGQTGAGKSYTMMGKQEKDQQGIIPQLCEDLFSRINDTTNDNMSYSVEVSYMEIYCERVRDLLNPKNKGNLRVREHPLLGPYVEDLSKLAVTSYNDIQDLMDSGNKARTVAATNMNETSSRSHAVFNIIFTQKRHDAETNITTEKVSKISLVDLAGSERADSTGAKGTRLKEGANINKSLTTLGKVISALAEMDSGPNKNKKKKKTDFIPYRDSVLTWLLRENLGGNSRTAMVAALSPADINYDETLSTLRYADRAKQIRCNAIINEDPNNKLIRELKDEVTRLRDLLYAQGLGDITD

[2] = target: endogenous KIF1A in rat brain cytosol (rat (endogenous in rat brain)) (UniProt F1M4A4); experiment: sucrose density gradient centrifugation; cytosolic extract of rat brain compared with detergent extracts of COS cells expressing Myc-KIF1A or mCit-KIF1A; fractions immunoblotted; standards catalase (11.3 S) and bovine serum albumin (4.3 S)
KIF1A(1–377)-mCit (rat) = KIF1A(1–377)-mCit (rat) (UniProt F1M4A4); experiment: cross-linking; lysates of transfected COS cells in borate buffer (50 mM NaBorate, 100 mM potassium acetate, 2 mM MgCl2, 1 mM EGTA, 1% Triton X-100, pH 8.57), 20 mM DMP for 30 min or untreated; SDS-PAGE, immunoblot

B2: KIF1A(1–381)-mCit (domain or fragment, UniProt F1M4A4 1-381)
chain: MAGASVKVAVRVRPFNSREMSRDSKCIIQMSGSTTTIVNPKQPKETPKSFSFDYSYWSHTSPEDINYASQKQVYRDIGEEMLQHAFEGYNVCIFAYGQTGAGKSYTMMGKQEKDQQGIIPQLCEDLFSRINDTTNDNMSYSVEVSYMEIYCERVRDLLNPKNKGNLRVREHPLLGPYVEDLSKLAVTSYNDIQDLMDSGNKARTVAATNMNETSSRSHAVFNIIFTQKRHDAETNITTEKVSKISLVDLAGSERADSTGAKGTRLKEGANINKSLTTLGKVISALAEMDSGPNKNKKKKKTDFIPYRDSVLTWLLRENLGGNSRTAMVAALSPADINYDETLSTLRYADRAKQIRCNAIINEDPNNKLIRELKDEVTRLRD
- binding (KIF1A(1–381)-mCit (rat)): no binding

B4: KIF1A(1–393)-mCit (domain or fragment, rat, UniProt F1M4A4 1-393, looked up)
chain: MAGASVKVAVRVRPFNSREMSRDSKCIIQMSGSTTTIVNPKQPKETPKSFSFDYSYWSHTSPEDINYASQKQVYRDIGEEMLQHAFEGYNVCIFAYGQTGAGKSYTMMGKQEKDQQGIIPQLCEDLFSRINDTTNDNMSYSVEVSYMEIYCERVRDLLNPKNKGNLRVREHPLLGPYVEDLSKLAVTSYNDIQDLMDSGNKARTVAATNMNETSSRSHAVFNIIFTQKRHDAETNITTEKVSKISLVDLAGSERADSTGAKGTRLKEGANINKSLTTLGKVISALAEMDSGPNKNKKKKKTDFIPYRDSVLTWLLRENLGGNSRTAMVAALSPADINYDETLSTLRYADRAKQIRCNAIINEDPNNKLIRELKDEVTRLRDLLYAQGLGDITD
notes: full NC and several residues of the hinge; Plasmid was a gift from Gary Banker; source: COS cells, transfected, in lysate; not shown: mCit (monomeric citrine), C-terminal, kept
- binding (KIF1A(1–393)-Myc (rat)): binds

Continued, values first:

- binding (KIF1A(1–726)-Myc (rat)): binds
B1: KIF1A(1–726)-mCit (domain or fragment, rat, UniProt F1M4A4 1-726, looked up)
chain: MAGASVKVAVRVRPFNSREMSRDSKCIIQMSGSTTTIVNPKQPKETPKSFSFDYSYWSHTSPEDINYASQKQVYRDIGEEMLQHAFEGYNVCIFAYGQTGAGKSYTMMGKQEKDQQGIIPQLCEDLFSRINDTTNDNMSYSVEVSYMEIYCERVRDLLNPKNKGNLRVREHPLLGPYVEDLSKLAVTSYNDIQDLMDSGNKARTVAATNMNETSSRSHAVFNIIFTQKRHDAETNITTEKVSKISLVDLAGSERADSTGAKGTRLKEGANINKSLTTLGKVISALAEMDSGPNKNKKKKKTDFIPYRDSVLTWLLRENLGGNSRTAMVAALSPADINYDETLSTLRYADRAKQIRCNAIINEDPNNKLIRELKDEVTRLRDLLYAQGLGDITDTNTVPGGPKLTNALVGMSPSSSLSALSSRAASVSSLHERILFAPGSEEAIERLKETEKIIAELNETWEEKLRRTEAIRMEREALLAEMGVAMREDGGTLGVFSPKKTPHLVNLNEDPLMSECLLYYIKDGVTRVGREDAERRQDIVLSGHFIKEEHCIFRSDSRGGGEAVVTLEPCEGADTYVNGKKVTEPSILRSGNRIIMGKSHVFRFNHPEQARQERERTPCAETPAEPVDWAFAQRELLEKQGIDMKQEMEQRLQELEDQYRREREEATYLLEQQRLDYESKLEALQKQMDSRYYPEVNEEEEEPEDEVQWTERECELALWAFRKWKWY
notes: source: COS cells, transfected, in lysate; not shown: mCit (monomeric citrine), C-terminal, kept

- binding [1]: binds
B3: KIF1A(1–393)-3xmCherry (domain or fragment, UniProt F1M4A4 1-393)
chain: MAGASVKVAVRVRPFNSREMSRDSKCIIQMSGSTTTIVNPKQPKETPKSFSFDYSYWSHTSPEDINYASQKQVYRDIGEEMLQHAFEGYNVCIFAYGQTGAGKSYTMMGKQEKDQQGIIPQLCEDLFSRINDTTNDNMSYSVEVSYMEIYCERVRDLLNPKNKGNLRVREHPLLGPYVEDLSKLAVTSYNDIQDLMDSGNKARTVAATNMNETSSRSHAVFNIIFTQKRHDAETNITTEKVSKISLVDLAGSERADSTGAKGTRLKEGANINKSLTTLGKVISALAEMDSGPNKNKKKKKTDFIPYRDSVLTWLLRENLGGNSRTAMVAALSPADINYDETLSTLRYADRAKQIRCNAIINEDPNNKLIRELKDEVTRLRDLLYAQGLGDITD

- binding [2]: binds
B5: endogenous KIF1A in rat brain cytosol (natural protein, rat (endogenous in rat brain), UniProt F1M4A4 1-1707, looked up)
chain: MAGASVKVAVRVRPFNSREMSRDSKCIIQMSGSTTTIVNPKQPKETPKSFSFDYSYWSHTSPEDINYASQKQVYRDIGEEMLQHAFEGYNVCIFAYGQTGAGKSYTMMGKQEKDQQGIIPQLCEDLFSRINDTTNDNMSYSVEVSYMEIYCERVRDLLNPKNKGNLRVREHPLLGPYVEDLSKLAVTSYNDIQDLMDSGNKARTVAATNMNETSSRSHAVFNIIFTQKRHDAETNITTEKVSKISLVDLAGSERADSTGAKGTRLKEGANINKSLTTLGKVISALAEMDSGPNKNKKKKKTDFIPYRDSVLTWLLRENLGGNSRTAMVAALSPADINYDETLSTLRYADRAKQIRCNAIINEDPNNKLIRELKDEVTRLRDLLYAQGLGDITDTNTVPGGPKLTNALVGMSPSSSLSALSSRAASVSSLHERILFAPGSEEAIERLKETEKIIAELNETWEEKLRRTEAIRMEREALLAEMGVAMREDGGTLGVFSPKKTPHLVNLNEDPLMSECLLYYIKDGVTRVGREDAERRQDIVLSGHFIKEEHCIFRSDSRGGGEAVVTLEPCEGADTYVNGKKVTEPSILRSGNRIIMGKSHVFRFNHPEQARQERERTPCAETPAEPVDWAFAQRELLEKQGIDMKQEMEQRLQELEDQYRREREEATYLLEQQRLDYESKLEALQKQMDSRYYPEVNEEEEEPEDEVQWTERECELALWAFRKWKWYQFTSLRDLLWGNAIFLKEANAISVELKKKVQFQFVLLTDTLYSPLPPDLLPPEAAKDRETRPFPRTIVAVEVQDQKNGATHYWTLEKLRQRLDLMREMYDRAAEVPSSVVEDCDNVVTGGDPFYDRFPWFRLVGRAFVYLSNLLYPVPLVHRVAIVSEKGEVKGFLRVAVQAISADEEAPDYGSGVRQSGTAKISFDDQHFEKFQSESCPVVGMSRSGTSQEELRIVEGQGQGADAGPSADEVNNNTCSAVPPEGLLDSPEKAALDGPLDTALDHLRLGSTFTFRVTVLQASSISAEYADIFCQFNFIHRHDEAFSTEPLKNTGRGPPLGFYHVQNIAVEVTKSFIEYIKSQPIVFEVFGHYQQHPFPPLCKDVLSPLRPSRRHFPRVMPLSKPVPATKLSTMTRPSPGPCHCKYDLLVYFEICELEANGDYIPAVVDHRGGMPCMGTFLLHQGIQRRITVTLLHETGSHIRWKEVRELVVGRIRNTPETDEALIDPNILSLNILSSGYVHPAQDDRQFLDSDIPRTFYQFEAAWDSSMHNSLLLNRVTPYREKIYMTLSAYIEMENCTQPAVITKDFCMVFYSRDAKLPASRSIRNLFGSGSLRATEGNRVTGVYELSLCHVADAGSPGMQRRRRRVLDTSVAYVRGEENLAGWRPRSDSLILDHQWELEKLSLLQEVEKTRHYLLLREKLETTQRPVPEVLSPASSEDSESRSSSGASSPLSAEGQPSPLEVPNERQRELAVKCLRLLMHTFNREYTHSHVCISASESKLSEMSVTLMRDPSMSPLGAATLTPSSTCPSLIEGRYGATDVRTPQPCSRPASPEPELLPELDSKKTPSPVRATETEKEPQRLLVPDIQEIRVSPIVSKKGYLHFLEPHTAGWAKRFVVVRRPYAYMYNSDKDTVERFVLNLSTAQVEYSEDQQAMLKTPNTFAVCTEHRGILLQANSDKDMHDWLYAFNPLLAGTIRSKLSRRRSAQMRV
notes: KIF1A, endogenous protein of rat brain cytosol; source: endogenous, cytosolic extract of rat brain

- binding (KIF1A(1–377)-mCit (rat)): no binding
B6: KIF1A(1–377)-mCit (domain or fragment, UniProt F1M4A4 1-377)
chain: MAGASVKVAVRVRPFNSREMSRDSKCIIQMSGSTTTIVNPKQPKETPKSFSFDYSYWSHTSPEDINYASQKQVYRDIGEEMLQHAFEGYNVCIFAYGQTGAGKSYTMMGKQEKDQQGIIPQLCEDLFSRINDTTNDNMSYSVEVSYMEIYCERVRDLLNPKNKGNLRVREHPLLGPYVEDLSKLAVTSYNDIQDLMDSGNKARTVAATNMNETSSRSHAVFNIIFTQKRHDAETNITTEKVSKISLVDLAGSERADSTGAKGTRLKEGANINKSLTTLGKVISALAEMDSGPNKNKKKKKTDFIPYRDSVLTWLLRENLGGNSRTAMVAALSPADINYDETLSTLRYADRAKQIRCNAIINEDPNNKLIRELKDEVT
